From ChEMBL document CHEMBL1132561, “Identification and characterization of m1 selective muscarinic receptor antagonists1” (J Med Chem, 1999) come the findings set out here.

Holding throughout (experiment): biochemical
What all share (assay type): cell-based, CHO

The target of assay [1] is Muscarinic acetylcholine receptor M3 (Homo sapiens, UniProt P20309).
For assay [2], the target named is T1, Muscarinic acetylcholine receptor M2 (Homo sapiens, UniProt P08172).
T1 sequence (P08172 whole entry): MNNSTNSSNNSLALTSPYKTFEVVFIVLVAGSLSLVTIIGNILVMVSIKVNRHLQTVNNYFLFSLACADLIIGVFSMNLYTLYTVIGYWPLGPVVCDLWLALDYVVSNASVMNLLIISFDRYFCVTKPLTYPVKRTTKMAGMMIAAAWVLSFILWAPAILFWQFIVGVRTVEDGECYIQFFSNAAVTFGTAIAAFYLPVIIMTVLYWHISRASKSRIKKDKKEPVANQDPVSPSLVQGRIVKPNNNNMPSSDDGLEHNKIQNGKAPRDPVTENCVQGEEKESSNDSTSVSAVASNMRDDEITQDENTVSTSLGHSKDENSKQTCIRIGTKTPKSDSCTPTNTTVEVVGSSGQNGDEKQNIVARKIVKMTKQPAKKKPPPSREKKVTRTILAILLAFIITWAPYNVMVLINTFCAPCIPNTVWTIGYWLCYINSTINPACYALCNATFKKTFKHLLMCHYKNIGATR

For assay [3], the target named is T2, Muscarinic acetylcholine receptor M4 (Homo sapiens, UniProt P08173).
T2 sequence (P08173 whole entry): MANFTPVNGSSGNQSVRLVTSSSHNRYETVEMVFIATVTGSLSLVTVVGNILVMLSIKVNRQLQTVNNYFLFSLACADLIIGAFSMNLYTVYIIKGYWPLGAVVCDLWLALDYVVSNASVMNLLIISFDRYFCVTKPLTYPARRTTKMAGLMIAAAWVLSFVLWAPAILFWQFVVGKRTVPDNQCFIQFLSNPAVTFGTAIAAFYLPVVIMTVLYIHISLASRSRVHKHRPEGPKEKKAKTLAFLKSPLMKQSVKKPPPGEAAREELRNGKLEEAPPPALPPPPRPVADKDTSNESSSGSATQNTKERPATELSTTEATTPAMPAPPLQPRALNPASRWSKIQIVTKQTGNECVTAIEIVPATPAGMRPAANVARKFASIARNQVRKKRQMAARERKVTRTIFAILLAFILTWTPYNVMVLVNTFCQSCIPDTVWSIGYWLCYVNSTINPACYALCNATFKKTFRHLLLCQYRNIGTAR

Assay [4] concerns the target T3, Muscarinic acetylcholine receptor M5 (Homo sapiens, UniProt P08912).
T3 sequence (P08912 whole entry): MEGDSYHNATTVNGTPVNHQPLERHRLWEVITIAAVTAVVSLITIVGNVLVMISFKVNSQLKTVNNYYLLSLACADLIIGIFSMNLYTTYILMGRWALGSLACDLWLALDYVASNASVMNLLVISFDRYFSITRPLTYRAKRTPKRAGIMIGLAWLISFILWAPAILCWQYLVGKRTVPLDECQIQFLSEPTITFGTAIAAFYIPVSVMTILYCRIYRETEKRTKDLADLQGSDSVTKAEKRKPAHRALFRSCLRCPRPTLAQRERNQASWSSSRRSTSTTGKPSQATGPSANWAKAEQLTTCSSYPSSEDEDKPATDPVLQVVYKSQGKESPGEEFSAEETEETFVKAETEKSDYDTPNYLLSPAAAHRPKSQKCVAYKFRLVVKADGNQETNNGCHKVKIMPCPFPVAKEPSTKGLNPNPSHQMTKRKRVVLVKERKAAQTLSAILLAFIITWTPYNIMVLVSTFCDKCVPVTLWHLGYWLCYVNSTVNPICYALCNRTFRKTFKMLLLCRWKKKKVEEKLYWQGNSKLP

As usually defined, the IC50 is the concentration that gives 50% inhibition.

Sequence of Muscarinic acetylcholine receptor M3 (P20309 whole entry): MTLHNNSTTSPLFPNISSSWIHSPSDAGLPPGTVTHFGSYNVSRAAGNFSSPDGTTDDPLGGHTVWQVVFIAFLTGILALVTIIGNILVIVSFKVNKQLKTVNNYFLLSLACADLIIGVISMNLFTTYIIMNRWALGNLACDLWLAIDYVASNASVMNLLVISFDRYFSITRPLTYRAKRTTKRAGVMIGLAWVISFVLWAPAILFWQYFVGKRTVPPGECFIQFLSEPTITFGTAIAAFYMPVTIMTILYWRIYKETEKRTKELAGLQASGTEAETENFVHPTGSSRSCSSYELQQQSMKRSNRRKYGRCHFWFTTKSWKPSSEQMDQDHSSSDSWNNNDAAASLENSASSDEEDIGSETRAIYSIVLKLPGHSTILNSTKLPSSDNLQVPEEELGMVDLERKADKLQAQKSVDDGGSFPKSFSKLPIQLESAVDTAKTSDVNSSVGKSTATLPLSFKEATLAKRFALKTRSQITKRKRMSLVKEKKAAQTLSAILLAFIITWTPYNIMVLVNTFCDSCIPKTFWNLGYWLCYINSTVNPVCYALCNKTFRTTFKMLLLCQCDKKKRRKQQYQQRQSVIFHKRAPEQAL

For the compound `CCN1CC[C@@H](c2ccccc2)[C@@H](C(=O)OC2CCCCC2)C1`, the IC50 in assay [1] turned out to be 2550 nM; in assay [2], 1610 nM; in assay [3], 4250 nM; in assay [4] it was 1890 nM.
In the case of `CCCOC(=O)C1=C(c2ccccc2)CCN(CC)C1`, the IC50 in assay [1] was determined as 684 nM; in assay [2], 542 nM; in assay [3], 1410 nM; in assay [4], 603 nM.
As for `CCN1CCC(c2ccccc2)=C(C(=O)OCCC2CCCCC2)C1`, the IC50 in assay [1] amounted to 115 nM; in assay [2], 238 nM; in assay [3], 135 nM; in assay [4] it was 56.2 nM.
In the same order, the values of `CCOC(=O)C1CN(CC)CC=C1c1ccccc1` (stereo not drawn) are 6870 nM, 2760 nM, 10400 nM and 4170 nM.
With `CCN1CC=C(c2ccccc2)C(C(=O)OCCC2CCCCC2)C1` (stereo not drawn), the IC50 in assay [1] came to 530 nM; in assay [2] it was 1940 nM; in assay [3] it was 836 nM; in assay [4], 159 nM.
In the case of `CCCCCCCCCOC(=O)C1CN(CC)CC=C1c1ccccc1` (stereo not drawn), the IC50 in assay [1] was 1600 nM; in assay [2], 486 nM; in assay [3] it was 1580 nM; in assay [4], 329 nM.
With `CCCCCCCCCOC(=O)C1=C(c2ccccc2)CCN(CC)C1`, the IC50 in assay [1] is 202 nM; in assay [2] it was 22.2 nM; in assay [3], 282 nM; in assay [4], 85.4 nM.
Turning to `CCCCCCCOC(=O)C1CN(CC)CC=C1c1ccccc1` (stereo not drawn), the IC50 in assay [1] is 1100 nM; in assay [3], 2200 nM; in assay [4], 537 nM.
`CCCOC(=O)C1CN(CC)CC=C1c1ccccc1` (stereo not drawn): the IC50 amounted to 2310 nM in assay [1], 1670 nM in assay [2], 3790 nM in assay [3] and 1130 nM in assay [4].
Turning to `CCN1CC[C@@H](c2ccccc2)[C@H](C(=O)OCCc2ccccc2)C1`, the IC50 in assay [1] was 315 nM; in assay [2], 357 nM; in assay [3], 145 nM; in assay [4] it was 96.8 nM.
The corresponding values for `CCN1CC[C@@H](c2ccccc2)[C@H](C(=O)OC2CCCCC2)C1` are 4510 nM, 4100 nM, 7900 nM and 2970 nM.
In the same order, the values of `CCCCOC(=O)C1=C(c2ccccc2)CCN(CC)C1` are 536 nM, 1870 nM, 524 nM and 255 nM.
The corresponding values for `CCN1CCC(c2ccccc2)=C(C(=O)OCCCCCc2ccccc2)C1` are 448 nM, 121 nM, 951 nM and 472 nM.
For the compound `CCCCOC(=O)C1CN(CC)CC=C1c1ccccc1` (stereo not drawn), the IC50 in assay [1] amounted to 290 nM; in assay [2], 471 nM; in assay [3] it was 656 nM; in assay [4], 265 nM.
In the same order, the values of `CCOC(=O)C1=C(c2ccccc2)CCN(CC)C1` are 1690 nM, 395 nM, 3230 nM and 1330 nM.
In the case of `CCCCCc1noc(C2CN(CC)CC=C2c2ccccc2)n1` (stereo not drawn), the IC50 in assay [1] was 6710 nM; in assay [2] it was 10800 nM; in assay [3] it was 63300 nM; in assay [4], 2080 nM.
In the same order, the values of `CCN1CC=C(c2ccccc2)C(C(=O)OCCCCCc2ccccc2)C1` (stereo not drawn) are 2050 nM, 661 nM, 2390 nM and 1570 nM.
In the same order, the values of `CCN1CC[C@@H](c2ccccc2)[C@@H](C(=O)OCCc2ccccc2)C1` are 3180 nM, 4500 nM, 8120 nM and 4260 nM.
Consider `CCCCCCCOC(=O)C1=C(c2ccccc2)CCN(CC)C1`, for which the IC50 in assay [1] is 162 nM; in assay [3] it was 617 nM; in assay [4], 194 nM.
In the case of `CCCCCc1noc(C2=C(c3ccccc3)CCN(CC)C2)n1`, the IC50 in assay [1] turned out to be 1930 nM; in assay [2], 1220 nM; in assay [3], 8390 nM; in assay [4] it was 1470 nM.
